Data: the supplement of paper PMC11417369
± gives the standard deviation of the averaged measurements. This is one part of the list.

System: PfAP2-G AP2 domain (GST-tagged)
Assay: gcPBM binding intensity (ln(normalized median fluorescence intensity)); higher = stronger DNA binding
In short: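 Binding intensity values are the highest Masliner-normalised natural-log median intensity among replicate spots of either probe orientation. The binding step lasted 1 h in 1× PBS with 1% milk, 0.2 mg/ml BSA, 0.5% salmon testes DNA and 0.03% Triton X-100, using GST-tagged P. falciparum DNA-binding domains expressed in E. coli on an Agilent 4 × 180k array of primer-extended double-stranded 36-bp intergenic genomic probes plus negative controls. Alexa488 anti-GST antibody and a 488 nm scan detected bound protein.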

Sequence	gcPBM binding intensity (ln)
AACCAATATGCGTATACACACATAAATATAAATATA [CACACA_site3780]	10.2 ± 0.27
TTTTTTATATATTAGGAATTTATAAAATTAGAAGGT [GTGCAC_negctrl_site617]	10.1 ± 0.35
TTTTTTTTTTTTTGAACACACATTATTAATTTTTAT [CACACA_site308]	9.85 ± 0.28
ATATATTTTTTTTATACATGCAATGCATTTACGTTG [TGCATGCA_site565]	10.02 ± 0.042
AACCAGTTGATGTGTACACATATAGTAATAATTTTA [CACACA_site5564]	11.6 ± 0.99
TAATAAATTCAAAACATAAAAAGGAAAAAAAAAAAA [CACACA_negctrl_site1330]	9.63 ± 0.14
TTTTGAATATATTAAATAAATTAAAAATCTACAAAC [GTGCAC_negctrl_site622]	9.77 ± 0.16
AGATCATAATATTATACACACATTATATATCTGTAA [CACACA_site4925]	9.925 ± 0.007
TTTTTTTTTTTTTTGGTGCAGTTCACATATTATATA [GTGCAC_site9996]	10 ± 0.61
TTATTATATACAAAATGTACACAGAATAATTTGAAT [XGTACX_site2314]	11.3 ± 0.87
ATATATATATATATATGTACATAATATATTATATAT [XGTACX_site924]	11.3 ± 0.98
TTATTATATTAAAAGAGGACACATTTATTTTTTTTT [XGTACX_site1241]	10.9 ± 0.67
TATATTAACAAAATGGTGCAATAATTTCTATATTGT [GTGCAC_site9430]	9.94 ± 0.071
TGTGTAAGCACATACAAACACACAACCTTATTTTTA [CACACA_site2187]	10.03 ± 0.042
AAAAAAAAAAAAAAAAAAAAAAAAAAAAATAAAAAA [CACACA_negctrl_site59]	11 ± 0.47
AAAATATTTAATAGAAGTACACATGTATATATACAT [XGTACX_site8942]	11.6 ± 1.2
TTTCAATGTGACACGTGTCCGTAAAATTACATAATT [XGTACX_site7073]	11 ± 0.59
ATTAATAAAAGATAAAGTACAAATCGGAAAATGAAT [XGTACX_site7846]	11.1 ± 0.54
TTGTTCATCTTTTTTTTTTTTTTTTTTTTTTAAATC [CACACA_negctrl_site191]	9.58 ± 0.085
AAGATTAAACATTGCACACAGAAATATATTTTCTAT [CACACA_site2374]	9.91 ± 0.099
TTTATAATATGTTATACATGCAGGTACCTTTTTGTA [TGCATGCA_site746]	10.7 ± 0.52
TGAACTCATAGGAAAACACACATATGTGCAATATAT [CACACA_site6231]	10.02 ± 0.078

Sequence	gcPBM binding intensity (ln)
ACAATGATAGTGTAAAGTACATATATATAAAAAAAT [XGTACX_site5928]	11.2 ± 0.7
TGTTATTATTAAGACACACACACAAAAAAAAAAAAA [CACACA_site1481]	10.1 ± 0.42
ATTTATAATTTTTGAGCACACACAAGCATATATATA [CACACA_site8531]	10.2 ± 0.13
CTATACTATGAAAAGTGTACGAATAGCTAGCTATTT [XGTACX_site5927]	11 ± 0.71
TAGTAGTATTCATCCAGTACATATAAATGTATAATA [XGTACX_site7552]	10.8 ± 0.57
GAGCATTACACATATACACACATATAAATAAACATA [CACACA_site7315]	10.1 ± 0.31
ATATATTTTGGGGACTTTTTAAAAAAGAAGTATTAA [TGCATGCA_negctrl_site337]	10.9 ± 0.53
TTTTTGTTAATAAGTATGCACTATCTCATTTTTGTA	10.04 ± 0.092
TTTCTATTACGAACGTGTACATACATTATTCTTAAA [XGTACX_site5816]	11.5 ± 0.86
TAGAAAAAAATAGATGCATGCAATGAATGAATAATA [TGCATGCA_site14]	9.91 ± 0.085
CTTTGCATTACGAACATACACACAGAATAACTGAAA [CACACA_site3024]	10.185 ± 0.007
GAGAAATTTATACATACACACATATAAATATTATAG [CACACA_site7819]	9.92 ± 0.042
AAAAAGAAAAAACTTACACACATATATACACCCATG [CACACA_site8079]	10.4 ± 0.12
AATAATATATAAGAAAGTACAAAAAAATAAAATAAA [XGTACX_site3302]	11 ± 0.55
TTTTAATGAAATATCAAAAAAATTTATGATTTCAAA [GTGCAC_negctrl_site662]	9.4 ± 0.19
TTTTTTTTTTTGTGTGCATGTGCTAGGAAAGGTAGG [TGCATGCA_site330]	10.5 ± 0.64
ATATCAAATAGACAAACACACAAAGGAAGAGTGAAA [CACACA_site3921]	9.95 ± 0.057
TTCTTTTTTTTTTTTTTTTTTTTATAGTACAAAAAA [TGCATGCA_negctrl_site450]	11 ± 0.86
ATCTATATTATTTCTACACACATATCTATAATATGT [CACACA_site7561]	10.2 ± 0.21
AGAAGTTTATCTTTTAGTACGCATAAAAAAAAAAAA [XGTACX_site2359]	11.2 ± 0.95
TATAAATAATTATATTGTACTCTTTATATTTTTCTT [XGTACX_site5335]	11.3 ± 0.71
TTATATAAGGTCTATATATAAATATTAATGATAAGG [TGCATGCA_negctrl_site354]	10.2 ± 0.31
